The whole screen tested about 45,000 compounds, of which about 65 (0.1%) were called active. Calls come from the whole dose curve; as a rule, active = well fitted activation curve with a large enough effect; inconclusive = small, poorly fitted or top-dose-only effect; inactive = no such curve, though single readings can be large or run the other way. This is one part of the list.
molecular target: Galactocerebrosidase (Homo sapiens) (UniProt P54803); assay: A Novel Cell-Based Assay to Identify Small Molecules for B -Galactocerebrosidase; conditions: 145M-Twi-hGALC-G270D cells, HMU-beta-Gal fluorescence, 48 h; series mostly up to 57.5 µM; activation: at the top concentration; note: 0% is about no effect; nearly all actives have a fitted effect of over 65% in size
UniProt P54803, sequence (P54803 whole entry, looked up): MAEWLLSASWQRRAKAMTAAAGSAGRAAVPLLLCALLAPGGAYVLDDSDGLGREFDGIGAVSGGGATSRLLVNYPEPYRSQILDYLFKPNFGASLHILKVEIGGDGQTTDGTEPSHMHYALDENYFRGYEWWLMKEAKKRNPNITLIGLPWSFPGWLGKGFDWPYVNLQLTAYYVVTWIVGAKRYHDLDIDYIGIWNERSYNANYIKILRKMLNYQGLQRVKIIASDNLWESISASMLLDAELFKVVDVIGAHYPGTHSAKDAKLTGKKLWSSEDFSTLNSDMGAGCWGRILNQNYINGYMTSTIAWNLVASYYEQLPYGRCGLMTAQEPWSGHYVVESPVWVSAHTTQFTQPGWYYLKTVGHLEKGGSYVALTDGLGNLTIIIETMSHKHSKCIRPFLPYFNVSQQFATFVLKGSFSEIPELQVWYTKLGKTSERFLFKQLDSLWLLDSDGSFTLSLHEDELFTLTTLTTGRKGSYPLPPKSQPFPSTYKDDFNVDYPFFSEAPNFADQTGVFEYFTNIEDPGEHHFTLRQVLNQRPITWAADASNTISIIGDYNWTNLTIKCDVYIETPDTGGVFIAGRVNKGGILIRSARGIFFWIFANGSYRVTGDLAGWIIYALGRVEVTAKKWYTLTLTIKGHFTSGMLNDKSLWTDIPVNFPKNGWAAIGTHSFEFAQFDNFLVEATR
Summary of the method: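 qHTS, 1536-well; 145M-Twi-hGALC-G270D cells (WT line also made) in DMEM/F12 + 10% FBS; compound incubation on live cells; HMU-β-gal 0.1 mM final, pH 5.2, NaTC; carbonate stop; fluorescence increase = enhanced residual activity.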

activation, inactive:
CCOC(=O)C1CCC(CN(Cc2ccc(Cl)cc2)S(=O)(=O)c2cccc(Cl)c2C)CC1 (stereo not drawn) -13.2%
Cc1nn(C(=O)c2c(F)cccc2F)c(C)c1S(=O)(=O)N1CCCCCC1 -6.04%
CCCc1nnc(NC(=O)Nc2ccccc2Cl)s1 -15%
Cc1nc2nc(C)c(NS(=O)(=O)c3ccc(CC(C)C)cc3)c(=O)n2[nH]1 -9.02%
CCOc1ccc(OCC)c(NC(=O)C2CCCN(S(=O)(=O)c3cc(Br)cc4c3N(C(=O)CC)CC4)C2)c1 (stereo not drawn) -2.72%
Cn1c(=O)c2c(-c3ccccc3)n(CCCO)cc2n(C)c1=O -13.5%
COc1ccc(NC(=O)Cn2cc(C(=O)c3ccccc3OC)c(=O)c3ccc(C)nc32)cc1OC 4.37%
CCn1c(CN2CCOCC2)nc2cc(NC(=O)c3cccc([N+](=O)[O-])c3)ccc21 -23.9%
COc1ccc(C)cc1NC(=O)c1nnn(-c2c(C)cccc2C)c1C -6.44%
CC(=O)Nc1nnc2n1CCS2 2.9%
Cc1ccc(CN2CCC(CNC(=O)Nc3ccc(C)c(C)c3)C2)cc1 (stereo not drawn) -17%
CCCCc1ccc2nc(NC(=O)OC)[nH]c2c1 -13.8%
CC(C)N(C(=O)Cn1cc(SCC(=O)Nc2ccccc2C(F)(F)F)c2ccccc21)C(C)C 7.3%
CCOc1ccc(C2C(C(=O)Nc3ccccc3C)=C(C)Nc3nnnn32)cc1 (stereo not drawn) -18.8%
CC(N)C12CC3CC(CC(C3)C1)C2 (stereo not drawn) -8.22%
Cc1ccc(C)c(NC(=O)/C(C#N)=C/c2ccc(C(C)C)cc2)c1 -19.4%
COc1ccc(C)cc1NC(=O)c1oc2ccc(S(=O)(=O)N3CCC4(CC3)OCCO4)cc2c1C -7.52%
CCOCCn1cnc2sc(C(=O)Nc3ccccc3C(=O)OC)c(C)c2c1=O -17.2%
O=C(Cn1ccc2cc(S(=O)(=O)N3CCCCC3)ccc21)NCc1ccccc1Cl -18.6%
Cn1c(=O)c2c(c3ccccc31)OC(=O)CC2c1cccc(Cl)c1 (stereo not drawn) 3.08%
COc1ccccc1/C=C/c1nc(C#N)c(NCC(C)C)o1 -2.35%
COc1cc(NC(=O)CN2Cc3ccccc3C2=O)cc(OC)c1OC -9.73%
Cc1ccc(-c2nc(CCNC(=O)C(=O)Nc3c(C)cccc3C)cs2)cc1 -11.5%
CCCN(CCC)C(=O)c1nn(C)c2c1CSc1ccc(C)cc1-2 -17.6%
CC(C)Cn1c(=O)c2ccccc2n2c(CCC(=O)Nc3ccc(F)cc3)nnc12 -5.49%
Cc1c(C(=O)NCCO)[n+](=O)c2ccccc2n1[O-] -5.15%
CCOc1cccc(CC(=O)N2CCc3c([nH]c4ccccc34)C2c2ccc(SC)cc2)c1OCC (stereo not drawn) -8.9%
COc1ccc(N2C(=O)CSC23C(=O)N(Cc2ccc(C)cc2)c2ccccc23)cc1Cl (stereo not drawn) -39.3%
CCOc1ccc(NC(=O)Cn2nc(Cc3ccncc3)c3ccccc3c2=O)cc1 17.8%
COc1ccc(C(=O)c2oc3ccccc3c2NC(=O)c2cccc(OC)c2)cc1 -3.2%
CCOC(=O)c1cc(-c2ccccc2)n(CCCC(=O)Nc2ccccc2C)c1C -18.9%
COc1ccc(-n2ccnc(NCc3ccccc3Cl)c2=O)cc1OC 2.51%
COc1ccc(CNC(=O)C(CC(C)C)N2Cc3ccccc3C2=O)cc1 (stereo not drawn) -8.92%
CCN(CC)CCOC(=O)c1ccc(Nc2c3c(nc4ccccc24)CCC3)cc1 -14.9%
CC(C)CN(CCNC(=O)c1cc(-c2cccs2)nc2ccccc12)CC(C)C -5.83%
CCOc1ccccc1CNC(=O)c1cnc2sc(N(CC)CC)nn2c1=O -24.9%
Cc1ccc2nc(COc3cccc(NC(=O)c4ccccc4Cl)c3)cc(=O)n2c1 -12.6%
CCN(CC)CCOC(=O)c1ccc(NC(=O)c2cc3c(s2)-c2ccccc2OC3)cc1 4.25%
Cc1nc(-c2ccc(S(=O)(=O)Nc3ccc(Cl)c(C(F)(F)F)c3)cc2)co1 10.1%
Clc1cccc(C2=NC(c3cccs3)=Nc3ccc(Br)cc3N2)c1 -6.3%
CCc1ccc(NC(=O)CN2C(=O)c3ccccc3Sc3ccc(C(=O)N4CCCC4)cc32)cc1 -0.892%
COc1ccc(CNC(=O)c2sc3nc4n(c(=O)c3c2C)CCCCC4)cc1 -12%
COc1cccc(C(=O)CC2(O)C(=O)N(Cc3ccccc3)c3ccccc32)c1 (stereo not drawn) -22.8%
NC(=O)Cn1c(=O)n(CCCCCC(=O)NCc2ccc3c(c2)OCO3)c(=O)c2sccc21 -21.9%
COc1ccc(-c2c(C)c3cc(OC(=O)N4CCOCC4)ccc3oc2=O)cc1OC -9.86%
CC(CNC(=O)c1ccc(Cn2c(=O)c3cccn3c3cccnc32)cc1)c1ccccc1 (stereo not drawn) -9.34%
COc1cc(CNC(=O)c2ccc3nc(Cc4ccccc4)oc3c2)cc(OC)c1OC -4.79%
Cc1ccccc1CS(=O)(=O)Cc1ccc(C(=O)NCCc2ccc(Cl)cc2)o1 -12.9%
CCOC(=O)C1CCCN(c2c(C(=O)c3ccccc3)cnc3ccc(F)cc23)C1 (stereo not drawn) -23%
Cc1cn2c(=O)cc(COC(=O)c3ccc(NC(=O)c4ccccc4C)cc3)nc2s1 1.59%
COc1ccc2c(c1)c1c(c(=O)n(-c3ccc(OC)c(OC)c3)c(=O)n1Cc1ccc(F)cc1)n2C -20.2%
CCc1cccc(NC(=O)Cn2c(=O)n3nc(-c4cccc(F)c4)nc3c3ccccc32)c1 -19.1%
COc1cccc(Cn2nnc(C(=O)NCc3ccc(Cl)cc3Cl)c2N)c1 -5.54%
CCOc1cc2[nH]c(=O)n(CCCCC(=O)N3CCN(c4ccccc4OC)CC3)c(=O)c2cc1OCC -11.9%
COc1ccc(NC(=O)c2nnn(CC(=O)Nc3ccc(C)c(C)c3)c2N)cc1OC -23.6%
Cc1ccccc1C(=O)Nc1sc2c(c1C(=O)N1CCC(C)CC1)CCC(C)C2 (stereo not drawn) -16.9%
Cc1ccc(Cn2c(=O)c3cccnc3n(Cc3ccc(C)cc3)c2=O)cc1 -15.5%
O=C(CN1C(=O)COc2ccc(S(=O)(=O)N3CCCCCC3)cc21)N1CCN(c2ccc(F)cc2)CC1 -17.6%
COc1ccc(-c2cc3nc(C)c(CCC(=O)NCCc4ccc(Cl)cc4)c(C)n3n2)c(OC)c1 3.51%
Cc1ccc(CSc2ncc(Cl)c(C(=O)Oc3ccccc3F)n2)cc1 -11.4%
Cc1cn(C)c(CC(=O)Nc2cccc(C#N)c2)c1C(=O)O -0.439%
Cc1ccc(Cn2c(=O)n(-c3cccc(C(F)(F)F)c3)c(=O)c3c(C)c(C)sc32)c(C)c1 -15.2%
Cc1ccccc1NC(=O)COc1ccc2oc3c(c2c1)CCCC3 -15.9%
